In all, about 33,000 sequences were measured (“E-score (-0.5 to 0.5)”: median about -0.01, highest 2% from about 0.26 on). This is one part of the list.
biological target: Ste12 (UniProt P13574); experiment: PBM E-score (8-mer binding enrichment) (E-score (-0.5 to 0.5)); higher = stronger / more preferred TF binding; most listed sequences are background and not binding sites; settings: protein concentration: 200 nM; construct: GST-DNA-binding domain
How it was run: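 Detection of bound protein used fluorescent anti-GST, with scans normalised by masliner. The proteins were GST-tagged yeast transcription factors applied at about 100-200 nM to universal all-10-mer Agilent arrays made double-stranded by primer extension. Each ungapped eight-base word, pooled with its reverse complement, was scored with an E-score from the Universal PBM Analysis Suite.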

Question: GGGTTGTA was tested. Which “PBM E-score” value did it give?
Answer: -0.0262

Question: CGAGGACG was tested. Which “PBM E-score” value did it give?
Answer: -0.239

Question: How did the “PBM E-score” value turn out when ATGGATCC was run?
Answer: -0.0127

Question: For GATTCGAC, which “PBM E-score” value is on record?
Answer: 0.12

Question: ATGGGGTA was tested. Which “PBM E-score” value did it give?
Answer: -0.0735

Question: How did the “PBM E-score” value turn out when TCGGAAGA was run?
Answer: -0.00115

Question: For ATTTACCG, which “PBM E-score” value is on record?
Answer: 0.216

Question: Which “PBM E-score” value does the source give for GTCCGGTA here?
Answer: -0.0776

Question: For CGTATTTC, which “PBM E-score” value is on record?
Answer: 0.132

Question: For AACCTCAA, which “PBM E-score” value is on record?
Answer: 0.00447

Question: CATATGCG was tested. Which “PBM E-score” value did it give?
Answer: 0.0335

Question: Which “PBM E-score” value does the source give for GGCTCTTA here?
Answer: -0.00744

Question: For AGTGGTTA, which “PBM E-score” value is on record?
Answer: 0.124

Question: AGGGTAGG was tested. Which “PBM E-score” value did it give?
Answer: -0.115

Question: How did the “PBM E-score” value turn out when CCATACGC was run?
Answer: 0.139

Question: How did the “PBM E-score” value turn out when AAGCCTTA was run?
Answer: -0.143

Question: Which “PBM E-score” value does the source give for GTCGTGCA here?
Answer: -0.0983

Question: Which “PBM E-score” value does the source give for AAAGACTG here?
Answer: -0.334

Question: For AGTTATTC, which “PBM E-score” value is on record?
Answer: -0.0103

Question: For ATACAGTG, which “PBM E-score” value is on record?
Answer: 0.162

Question: With ACTTGGTA as the sequence, how does the “PBM E-score” value read?
Answer: -0.152

Question: With CTGGGGAC as the sequence, how does the “PBM E-score” value read?
Answer: -0.25

Question: GGGGTACC was tested. Which “PBM E-score” value did it give?
Answer: -0.0131

Question: For TAGTAGAA, which “PBM E-score” value is on record?
Answer: 0.182

Question: ATTGTAGA was tested. Which “PBM E-score” value did it give?
Answer: 0.144

Question: For GGGCTTAA, which “PBM E-score” value is on record?
Answer: 0.148

Question: For GCGGCGAA, which “PBM E-score” value is on record?
Answer: 0.00331

Question: For GAGATCGA, which “PBM E-score” value is on record?
Answer: 0.0858

Question: For GCTGACCC, which “PBM E-score” value is on record?
Answer: -0.154

Question: ACGATCAA was tested. Which “PBM E-score” value did it give?
Answer: -0.0466

Question: How did the “PBM E-score” value turn out when CAACTGGC was run?
Answer: -0.24

Question: Which “PBM E-score” value does the source give for CCTCCACC here?
Answer: 0.107

Question: How did the “PBM E-score” value turn out when ACTTTACT was run?
Answer: 0.0663

Question: Which “PBM E-score” value does the source give for ACGGAGCA here?
Answer: -0.0453

Question: For CGTTAACA, which “PBM E-score” value is on record?
Answer: -0.0349

Question: With CGGGAGTC as the sequence, how does the “PBM E-score” value read?
Answer: -0.12

Question: How did the “PBM E-score” value turn out when ATAACAGG was run?
Answer: 0.0055

Question: AATAACGT was tested. Which “PBM E-score” value did it give?
Answer: 0.062

Question: CATGGATA was tested. Which “PBM E-score” value did it give?
Answer: -0.0782

Question: How did the “PBM E-score” value turn out when GCGAAAAC was run?
Answer: -0.0118

Question: Which “PBM E-score” value does the source give for AACACTTA here?
Answer: 0.252

Question: With CACACTGG as the sequence, how does the “PBM E-score” value read?
Answer: -0.275

Question: With AGAAGCGA as the sequence, how does the “PBM E-score” value read?
Answer: -0.053

Question: For CAATCAGA, which “PBM E-score” value is on record?
Answer: -0.0489

Question: How did the “PBM E-score” value turn out when ACAGTCAG was run?
Answer: -0.0315

Question: How did the “PBM E-score” value turn out when ACAATTAA was run?
Answer: 0.292

Question: With CACCAACC as the sequence, how does the “PBM E-score” value read?
Answer: -0.0929

Question: How did the “PBM E-score” value turn out when CGTGTCGC was run?
Answer: 0.115

Question: How did the “PBM E-score” value turn out when AAGAGCAC was run?
Answer: -0.143

Question: CCACGCGA was tested. Which “PBM E-score” value did it give?
Answer: 0.0282

Question: For GAGCCATA, which “PBM E-score” value is on record?
Answer: -0.0316

Question: With AAACCATA as the sequence, how does the “PBM E-score” value read?
Answer: 0.144

Question: For CTCGCTAC, which “PBM E-score” value is on record?
Answer: -0.129

Question: GATAGTGA was tested. Which “PBM E-score” value did it give?
Answer: 0.239

Question: With CCAAGGGG as the sequence, how does the “PBM E-score” value read?
Answer: 0.0321

Question: For AAGATGAG, which “PBM E-score” value is on record?
Answer: -0.0966

Question: With GAGCTAGC as the sequence, how does the “PBM E-score” value read?
Answer: -0.146

Question: Which “PBM E-score” value does the source give for TCAACCCA here?
Answer: 0.0128

Question: AGGTAAGC was tested. Which “PBM E-score” value did it give?
Answer: -0.0519

Question: For ATGAGTGA, which “PBM E-score” value is on record?
Answer: 0.0403

Question: For CATGGGGC, which “PBM E-score” value is on record?
Answer: -0.0598

Question: With GCAGCCAA as the sequence, how does the “PBM E-score” value read?
Answer: 0.00098

Question: Which “PBM E-score” value does the source give for CAGAAGTA here?
Answer: 0.174

Question: How did the “PBM E-score” value turn out when CTCGGCTC was run?
Answer: -0.0288

Question: CCAGAATC was tested. Which “PBM E-score” value did it give?
Answer: -0.105

Question: With GCTCTAAC as the sequence, how does the “PBM E-score” value read?
Answer: -0.0314

Question: Which “PBM E-score” value does the source give for ATTCTGAC here?
Answer: 0.0839

Question: For CACTGAGG, which “PBM E-score” value is on record?
Answer: 0.0584

Question: GATAATCA was tested. Which “PBM E-score” value did it give?
Answer: 0.0908

Question: How did the “PBM E-score” value turn out when ATGTGAAG was run?
Answer: 0.25

Question: For TGTAGTAA, which “PBM E-score” value is on record?
Answer: 0.0284

Question: For AATTGAAA, which “PBM E-score” value is on record?
Answer: 0.412

Question: CATCATTC was tested. Which “PBM E-score” value did it give?
Answer: 0.0217

Question: For ATCGCGAA, which “PBM E-score” value is on record?
Answer: 0.135

Question: With AAGGCGAT as the sequence, how does the “PBM E-score” value read?
Answer: -0.139

Question: CTGGGCGA was tested. Which “PBM E-score” value did it give?
Answer: -0.188

Question: With CGAAATCA as the sequence, how does the “PBM E-score” value read?
Answer: 0.216

Question: For CGAGAAGA, which “PBM E-score” value is on record?
Answer: -0.0647

Question: For ATCGACCG, which “PBM E-score” value is on record?
Answer: -0.0422

Question: With CGAGTTGC as the sequence, how does the “PBM E-score” value read?
Answer: 0.0105

Question: How did the “PBM E-score” value turn out when GCCTCACA was run?
Answer: 0.0125

Question: With ATCTGCAT as the sequence, how does the “PBM E-score” value read?
Answer: 0.0274

Question: Which “PBM E-score” value does the source give for ACTGTTAT here?
Answer: 0.142

Question: AAGTAACT was tested. Which “PBM E-score” value did it give?
Answer: 0.0625

Question: AGTGATAG was tested. Which “PBM E-score” value did it give?
Answer: -0.118

Question: How did the “PBM E-score” value turn out when TGCACGAA was run?
Answer: 0.207

Question: With TCAAAAAA as the sequence, how does the “PBM E-score” value read?
Answer: 0.32

Question: Which “PBM E-score” value does the source give for CCAGCCGG here?
Answer: -0.121

Question: TCAGTGGA was tested. Which “PBM E-score” value did it give?
Answer: -0.028

Question: Which “PBM E-score” value does the source give for ACAAACGA here?
Answer: 0.2

Question: ACACTCCA was tested. Which “PBM E-score” value did it give?
Answer: 0.0449

Question: Which “PBM E-score” value does the source give for ATTACGTG here?
Answer: 0.0722

Question: How did the “PBM E-score” value turn out when CGCTTACG was run?
Answer: -0.345

Question: Which “PBM E-score” value does the source give for GGATCTAA here?
Answer: 0.064

From the supplement of paper PMC3334620
